# According to the supplement of paper PMC3334620:
# Whole data set: some 33,000 sequences, median “E-score (-0.5 to 0.5)” near -0.035, cut for the highest 2% near 0.35. The list shows a part of the results.
# Target: T1, Pdr3 (UniProt P33200)
# T1 sequence: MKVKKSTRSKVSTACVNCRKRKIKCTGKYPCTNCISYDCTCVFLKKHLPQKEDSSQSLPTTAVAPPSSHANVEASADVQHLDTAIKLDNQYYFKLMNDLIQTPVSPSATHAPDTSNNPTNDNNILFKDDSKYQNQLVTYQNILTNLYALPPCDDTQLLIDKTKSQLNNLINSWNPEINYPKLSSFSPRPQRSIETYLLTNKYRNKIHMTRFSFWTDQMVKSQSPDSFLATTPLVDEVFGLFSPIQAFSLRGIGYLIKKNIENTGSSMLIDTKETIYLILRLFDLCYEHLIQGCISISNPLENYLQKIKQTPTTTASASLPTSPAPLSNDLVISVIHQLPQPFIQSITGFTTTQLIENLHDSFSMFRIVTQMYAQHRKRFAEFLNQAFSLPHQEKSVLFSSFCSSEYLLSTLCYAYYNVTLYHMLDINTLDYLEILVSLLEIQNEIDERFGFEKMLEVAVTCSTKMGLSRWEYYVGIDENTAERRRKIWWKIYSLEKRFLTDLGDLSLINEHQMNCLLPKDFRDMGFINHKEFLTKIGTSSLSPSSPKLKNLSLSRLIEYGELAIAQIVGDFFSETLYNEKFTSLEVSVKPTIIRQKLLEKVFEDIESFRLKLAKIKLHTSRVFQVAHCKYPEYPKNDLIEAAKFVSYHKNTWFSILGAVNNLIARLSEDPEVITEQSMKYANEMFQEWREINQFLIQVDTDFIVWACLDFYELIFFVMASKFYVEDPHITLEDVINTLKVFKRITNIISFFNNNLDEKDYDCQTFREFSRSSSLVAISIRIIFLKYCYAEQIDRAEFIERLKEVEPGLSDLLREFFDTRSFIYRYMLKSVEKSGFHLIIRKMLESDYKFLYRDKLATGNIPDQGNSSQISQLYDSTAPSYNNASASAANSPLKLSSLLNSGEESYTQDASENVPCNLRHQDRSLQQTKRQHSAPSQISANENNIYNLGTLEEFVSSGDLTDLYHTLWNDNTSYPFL
# Assay: PBM E-score (8-mer binding enrichment) (E-score (-0.5 to 0.5)); higher = stronger / more preferred TF binding; most listed sequences are background and not binding sites
# Settings: protein concentration: 200 nM; construct: GST-full length
# Method: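 Universal 'all 10-mer' protein binding microarrays (Agilent AMADID 015681) probed with GST-tagged S. cerevisiae TFs (full-length or DBD) made by in vitro transcription/translation (PURExpress), about 100-200 nM. Bound TF was detected with fluorescent anti-GST. Each ungapped 8-mer (which stands for itself and its reverse complement) is scored by the PBM enrichment score (E-score), a modified Wilcoxon-Mann-Whitney statistic from -0.5 to +0.5, computed with the Universal PBM Analysis Suite. Scale: above 0.35 generally sequence-specific binding.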
row,Sequence,PBM E-score
1,AAAGCGTA,-0.0399
2,GCACGATA,-0.0499
3,ACTAAAGC,-0.128
4,AGCCTGAC,-0.259
5,GCATGTAA,-0.216
6,ATCAGGCA,-0.0749
7,ACCTCTCT,-0.247
8,ACCATCCA,-0.0478
9,CCATCAAG,-0.157
10,GGACTCCA,0.0677
11,AGAAAACG,-0.0597
12,CCCCATGA,-0.132
13,CATACCTC,-0.0216
14,CCTGGGCA,-0.232
15,ATTAAGCG,-0.0117
16,CGTCCGGA,0.433
17,ACGTCTAT,-0.168
18,CACGTATA,-0.0998
19,GGCAAACC,-0.147
20,AGCGTTCA,-0.283
21,TAACCTCA,-0.156
22,CATCGGAC,0.143
23,AAATCTGA,-0.0704
24,AGCTATGA,-0.121
25,GCGGTGAA,0.0612

row,Sequence,PBM E-score
1,ACTGTTCA,-0.00555
2,TCGCTAAA,-0.126
3,AGGTCCAT,-0.0122
4,CACTCACA,0.0916
5,AGGCCGCA,-0.0397
6,ATTATATA,-0.00217
7,CCGACACA,0.0855
8,CGATATCA,0.135
9,CACCGTCC,0.125
10,AATCGCCG,0.142
11,GCCGGTGA,0.123
12,AGATAAAA,0.0553
13,AATTTCGT,-0.113
14,CGCTTGAG,-0.0477
15,AAGCGACA,0.0716
16,AAGGTAGT,0.0778
17,AACGCAGC,0.0532
18,AGTAACGA,-0.104
19,GACACATA,-0.00152
20,AGGAACTC,0.0544
21,AATTACTA,0.0014
22,CATATTAC,0.0911
23,AATTGCTA,-0.0798
24,CTCCTCCC,-0.0826
25,ACCCCCGT,-0.123

row,Sequence,PBM E-score
1,CCTTACGC,-0.0975
2,ATGAGTCG,-0.131
3,GACAGCTA,-0.188
4,ATTCTGGG,0.033
5,AAACCAAG,-0.169
6,CATACTCC,0.18
7,AGTTGCTG,-0.00673
8,AAGATACG,0.0392
9,CGCATAAG,-0.0423
10,GCTGAAAC,0.0574
11,AATGCTGG,0.00689
12,AGACTCGC,-0.134
13,ACGGGGCA,0.05
14,ATGCACAG,-0.0979
15,AAAACAGG,-0.332
16,CAGTCAAC,-0.134
17,CAGTTTTC,0.112
18,AGCCTGAG,-0.389
19,AGACAACC,0.0741
20,AATGTCAA,-0.113
21,GGTCGGAA,0.4
22,AGGACGTA,-0.0667
23,ACAGGTTC,-0.0996
24,CGATACCG,0.177
25,AAGTAGGA,-0.355

row,Sequence,PBM E-score
1,CCCATCGA,0.0121
2,GTAAGTGA,0.085
3,CGATATGA,0.102
4,ACTTGCTA,-0.163
5,CATTAAGA,-0.303
6,AGCAGCCC,-0.0573
7,ACATAAAG,-0.124
8,GGGCTCTA,-0.0512
9,TATGCAGA,-0.0675
10,ACGAATCT,-0.138
11,GCCACAAA,-0.0524
12,CAGACCGA,0.0747
13,CTTGATCA,0.0126
14,CGATTCAA,-0.112
15,GCTCTGAA,-0.126
16,ATCCGGGA,0.313
17,AGTGTCCG,0.235
18,ATAGTCAC,-0.0342
19,AGGATATC,-0.0388
20,AAGGTCCC,-0.0527
21,ACGGTAAC,0.224
22,ACCAGGTC,-0.0207
23,AGACGAAC,-0.0242
24,CTCTACAC,-0.15
25,CATGTGGA,-0.0419

row,Sequence,PBM E-score
1,ATCACACC,0.085
2,GGGCTCAC,-0.17
3,AGGGTAAC,-0.14
4,CGATGAGA,0.087
5,ATTAAATA,0.213
6,ATACAGGC,-0.0916
7,CCTGCAAC,-0.25
8,ATTATCAG,-0.0591
9,AGATGTAC,-0.285
10,ACCAAGGC,-0.129
11,CGCAAACG,0.0652
12,CAAACCGG,0.269
13,CGGCGCTA,0.0673
14,GCAGATGA,-0.0783
15,CCTATGTA,-0.16
16,AGCAGGTA,-0.184
17,GTATAGAC,-0.18
18,AATTCTAT,-0.193
19,CCTTTGCG,0.042
20,ACTGAATC,-0.185
21,GAGTCGTA,-0.107
22,GGCCCGTA,0.0625
23,GTTGTGTA,-0.142
24,AGCCCTGA,-0.207
25,AGGAATCA,-0.0475

row,Sequence,PBM E-score
1,AGTACTGC,-0.11
2,ATGTGCTG,0.134
3,GTCTGTGA,0.00905
4,CCAATCAC,-0.0311
5,TCTAACAA,-0.202
6,TCCCGGCA,0.323
7,CAAGAAAG,-0.0792
8,CCACCCCC,-0.0954
9,CTTGTATA,-0.126
10,AGGAACCA,-0.0282
11,CCGTACGA,0.00505
12,CCGGCCGC,0.317
13,CCCACGTA,-0.193
14,AGTCATGC,-0.144
15,CAGGACAA,0.116
16,GAAAATCA,0.00597
17,ACAGTGTC,-0.208
18,TGTCAAAA,-0.102
19,AATTGTAT,0.12
20,ATTTTGGA,0.0645
21,CACTTCCC,0.0703
22,AAAAAAGG,0.204
23,CTGAAATC,0.0707
24,CTCTAGGA,-0.339
25,CTTCACCA,-0.153

row,Sequence,PBM E-score
1,ACACTCAG,-0.14
2,AGGAAATA,0.121
3,TGGGGCAA,-0.269
4,AGGAATAC,-0.2
5,CGGGTATC,0.196
6,GCGGTCGA,0.17
7,ATACACAG,-0.0459
8,GGGTTATA,-0.131
9,CATAAAGC,-0.27
10,CGCCAGAA,0.0188
11,CATTCCAA,-0.102
12,TTAGGAAA,-0.217
13,CTAGAAGA,-0.097
14,AAGCTCCA,-0.114
15,ACCGGCCC,0.0099
16,GATCCGGA,0.437
17,ATAGCATC,-0.101
18,AATTTCGC,0.124
19,ATACGGCG,0.166
20,ATATTTAG,0.0523
21,CCCTTGCA,-0.185
22,GGAGACGA,0.212
